According to PubChem BioAssay (NCI):
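Tested at 5 concentrations; 48 h exposure; 96-well plates; endpoints linearly interpolated, else capped at highest concentration. GI50 marks 50% less growth. At the TGI there is no net growth.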 Calls of active or inactive are those of the source. No stated cut-off is given here; in the data, active means GI50 below about 0.43 µM; inactive means the rest. Bridge positions count the residues as written; N and C are the ends. Square brackets hold non-standard residues; d marks the D form. Peptide text beside a SMILES is read from it. * marks the point of attachment. Bn2Val = CC(C)[C@@H](C(=O)*)N(Cc1ccccc1)Cc1ccccc1; NH(4-F-benzyl) = Fc1ccc(CN*)cc1; Cya = N[CH](CS(=O)(=O)O)C(=O)O; X45 = CC(C)CCCCCCCC(O)CC(=O)*; NMeV = CN[C@H](C(=O)O)C(C)C; dNMeA = CN[C@H](C)C(=O)O; GABA = NCCCC(=O)O

Test system: NCI-H322M lung
Test: NCI anticancer screen, dose series, 48 h

SMILES | TGI | GI50 | outcome
N#Cc1c(O)c(C=Nc2ccc(Cl)cc2)c(=O)n2c1[nH]c1ccccc12 | > 100 µM |  | 
C#Cc1nc(N)c2ncn(C3OC(COS(N)(=O)=O)C(O)C3O)c2n1 (stereo not drawn) | < 0.0445 µM |  | 
COc1ccc(C2C(C#N)=C(N)Oc3c2sc2c(C)cccc32)cc1 (stereo not drawn) | 18.2 µM | 0.802 µM | 
CC(=O)O[C@H]1C(=O)[C@@]2(C)[C@H]([C@H](OC(=O)c3ccccc3)[C@]3(O)C[C@H](OC(=O)[C@H](OC(=O)OC[C@@H]4COC(C)(C)O4)[C@@H](NC(=O)c4ccccc4)c4ccccc4)C(C)=C1C3(C)C)[C@]1(OC(C)=O)CO[C@@H]1C[C@@H]2O | > 33.3 µM | 0.101 µM | 
O=C(O)CN1CCN(CC(=O)O)CCN(CC(=O)O)CC1 |  |  | inactive
CC(C)CCCCCCCC(O)CC(=O)NC(CS(=O)(=O)O)C(=O)NC(CC(C)C)C(=O)NCCCC(=O)NC(Cc1cnc[nH]1)C(=O)NC(C)C(=O)NC1C(=O)NC(C(C)O)C(=O)NC(Cc2cnc[nH]2)C(=O)NC(C)C(=O)NC(C(C)O)C(=O)OC1C (stereo not drawn) (X45-[Cya]L[GABA]HATTHAT; ester 6-C; configuration not given here) | > 25 µM |  | 
O=C(Nc1ccc(OCc2nnc(-c3ccc(Cl)cc3)o2)c(F)c1)Nc1ccc(Cl)c(Cl)c1 | > 100 µM | 11.4 µM | 
CCc1nc(N)nc(N)c1-c1ccc2c(c1)nnn2CCc1ccccc1 | > 72.5 µM |  | 
Cc1ccc(-c2c(C#N)c(-c3ccccc3)c(C#N)c(=O)n2NS(=O)(=O)c2ccc(C)cc2)cc1 | > 100 µM |  | 
COC(=O)Cc1c([C@H]2[C@H](CC(=O)OC)c3ccccc3N2C(=O)C(F)(F)F)[nH]c2ccccc12 | > 100 µM |  | 
CC1c2ccccc2Cn2cc3c(c21)C(=O)c1cccc(OP(=O)(O)OCc2ccccc2)c1C3=O (stereo not drawn) | > 100 µM |  | 
O=C1Cc2ccccc2N1/N=C\c1ccc([N+](=O)[O-])cc1 | > 100 µM |  | 
COC(=O)CCC(NC(=S)N/N=C(\C)c1ccco1)C(=O)OC (stereo not drawn) | > 100 µM |  | 
C=CC(=O)N1CC2(CCC(n3nc(-c4ccc(Oc5ccccc5)cc4)c4c(N)ncnc43)CC2)C1 | 9.51 µM | 0.125 µM | 
COc1ccc(/C=C/C(=O)c2ccc(NC(=O)CSc3nnc(-c4ccc(OC)c(OC)c4)n3-c3ccccc3)cc2)cc1 | 26.4 µM | 13.6 µM | 
COc1ccc2c(c1)SC1=NNC(Cl)C(=O)N12 (stereo not drawn) | 38.7 µM | 19.9 µM | 
NC(=Nc1ccc(Cl)cc1)c1ccccc1N | > 100 µM |  | 
CCOC(=O)c1ccc2c(c1)c1c(C)c3cnccc3c(C)c1n2C | 2.73 µM | 0.382 µM | 
CCN(CC)S(=O)(=O)c1ccc2nc(NC(=O)OC)[nH]c2c1 | > 100 µM |  | 
COC1(C)OC[C@@]2(C)OC(C)C1(C)C2O[Si](C(C)C)(C(C)C)C(C)C (stereo partly drawn) | > 100 µM |  | 
C=C1CC(Cn2cc(C)c(=O)[nH]c2=O)(c2ccc(Cl)cc2)OC1=O (stereo not drawn) | 30.5 µM |  | 
CCSc1nc2[nH]c(=S)[nH]c(=S)c2c(-c2ccc(OC)c(OC)c2)c1C#N | > 50 µM | > 50 µM | 

SMILES | TGI | GI50 | outcome
COc1ccc(-c2c3ccccc3c(-c3ccc(OCCBr)cc3)c3ccccc23)cc1 | > 100 µM |  | 
CC(C)[C@H](NC(=O)[C@H](C(C)C)N(Cc1ccccc1)Cc1ccccc1)C(=O)N(C)[C@H](C(=O)N1CCC[C@H]1C(=O)N(C)[C@H](C)C(=O)NCc1ccc(F)cc1)C(C)C (Bn2Val-V[NMeV]P[dNMeA]-{NH(4-F-benzyl)}) | > 67.3 µM |  | 
O=C1NC(c2cccc3ccccc23)Nc2ccc(O)cc21 (stereo not drawn) | > 150 µM |  | 
CC(C)OC(=O)Nc1ccc(-c2nc(-c3cccc(OCCN4CCOCC4)c3)c(-c3ccnc(Br)c3)[nH]2)cc1 | > 100 µM | 4.55 µM | 
O=C(O)c1ccc(C=C2Sc3ccccc3S2)cc1 | > 100 µM |  | 
O=c1nc2n(c3nsnc13)CCO2 | > 100 µM |  | 
CC(=O)NCCC1CN(C(=O)/C=C\I)c2ccccc21 (stereo not drawn) | 29.7 µM |  | 
COc1cc2c(cc1OC)C1c3ccccc3CCCN1CC2 (stereo not drawn) | > 100 µM |  | 
CCOC(=O)N1CCN(c2ccc3ccc(N)nc3n2)CC1 | > 100 µM |  | 
C/C(Cc1ccc(Cl)cc1)=C(\c1ccc(OCCN2CCCCCC2)cc1)c1ccc(OC(=O)c2ccccc2)cc1 | 16.1 µM | 5.85 µM | 
CC[C@H](Nc1cc(C)nc(N)n1)c1nc2cccc(NCc3ccc(C(=O)NO)cc3)c2c(=O)n1-c1ccccc1 | 11.4 µM | 2.92 µM | 
COC12COC(=O)C1C(c1ccc3c(c1)OCO3)c1cc3c(cc1O2)OCO3 (stereo not drawn) | > 100 µM |  | 
NC1CCCCC1N.O=NN1CCCCCC1(P(=O)([O-])[O-])P(=O)([O-])[O-].[Na+].[Pt+2] | > 100 µM | > 100 µM | 
O=C1C=C(Nc2ccccc2C(=O)c2ccccc2)c2ccccc2C1=O | > 100 µM |  | 
O=C1C[C@@H](c2ccc(O)cc2)[C@@]2(O1)C(=O)O[C@H]([C@@H](O)CO)[C@@H]2O | > 100 µM |  | 
CCOC(=O)C1=CC(C)(C(=O)OCC)Nc2c(nc(SC)[nH]c2=O)N1 (stereo not drawn) | > 10 µM |  | 
O=C1OC(c2cccc(C(F)(F)F)c2)(c2cccc(C(F)(F)F)c2)c2ccc3ccccc3c21 | > 100 µM | > 100 µM | 
COc1cc(Nc2nc3c(N)cc(C(F)(F)F)cc3nc2-c2ccccc2)cc(OC)c1OC | > 100 µM |  | 
O=c1c2ccccc2nc(-c2ccccc2Cl)n1NCC1(O)OCC(O)C(O)C1O (stereo not drawn) | > 100 µM |  | 
O=c1ccn(C2OC(CN(O)CCC3C(O)C(CO)OC3n3ccc(=O)[nH]c3=O)C(O)C2O)c(=O)[nH]1 (stereo not drawn) | > 100 µM |  | 
O=C(/C=C/c1cccc(O)c1)c1cccc(-n2cc(-c3ccc(Cl)cc3)[nH]c2=O)c1 | 10.9 µM | 2.52 µM | 
O=C1OC(c2ccc(O)c(F)c2)(c2ccc(O)c(F)c2)c2cccc3cccc1c23 | > 25 µM |  | 
